Data taken from PubChem BioAssay AID1347165 (National Center for Advancing Translational Sciences (NCATS), 2019).
In all, about 220,000 compounds went through this assay and about 5,700 (2.6%) were called active. This list was built around the results that the source calls inconclusive (neither active nor inactive); the mix of calls is not that of the screen. The call rests on the fitted dose curve; in most records, active means well fitted inhibition curve with a large enough effect; inconclusive means small, poorly fitted or top-dose-only effect; inactive means no such curve, though single readings can be large or run the other way. A potency beside an inconclusive call is a rough fit, not a confirmed value.

Biological target: Lysine-specific demethylase 5B (Homo sapiens) (UniProt Q9UGL1)
Assay: Primary screen for KDM5B Histone Demethylases FDH-coupled qHTS; further: nearly all actives have a fitted effect of over 70% in size; on activity change, negative = inhibition: 0% is about no effect
Details: FDH-coupled NADH fluorescence (FDH is formaldehyde dehydrogenase); activity change, negative = inhibition: at 57.7 µM (top of the series) unless noted
Summary of the method: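 Here, H3K4me3 peptide (12.5 µM in substrate mix) is demethylated by KDM5BΔAP, 200 nM final, after 10 min compound exposure. Formaldehyde product is coupled through FDH (0.25 U/mL in mix) to NADH fluorescence; 30-min ΔRFU feeds dose-response curves.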
Potency means the concentration at half of the fitted maximal effect; tags describe the fitted curve by direction and shape.

Sequence of UniProt Q9UGL1 (Q9UGL1 whole entry, looked up): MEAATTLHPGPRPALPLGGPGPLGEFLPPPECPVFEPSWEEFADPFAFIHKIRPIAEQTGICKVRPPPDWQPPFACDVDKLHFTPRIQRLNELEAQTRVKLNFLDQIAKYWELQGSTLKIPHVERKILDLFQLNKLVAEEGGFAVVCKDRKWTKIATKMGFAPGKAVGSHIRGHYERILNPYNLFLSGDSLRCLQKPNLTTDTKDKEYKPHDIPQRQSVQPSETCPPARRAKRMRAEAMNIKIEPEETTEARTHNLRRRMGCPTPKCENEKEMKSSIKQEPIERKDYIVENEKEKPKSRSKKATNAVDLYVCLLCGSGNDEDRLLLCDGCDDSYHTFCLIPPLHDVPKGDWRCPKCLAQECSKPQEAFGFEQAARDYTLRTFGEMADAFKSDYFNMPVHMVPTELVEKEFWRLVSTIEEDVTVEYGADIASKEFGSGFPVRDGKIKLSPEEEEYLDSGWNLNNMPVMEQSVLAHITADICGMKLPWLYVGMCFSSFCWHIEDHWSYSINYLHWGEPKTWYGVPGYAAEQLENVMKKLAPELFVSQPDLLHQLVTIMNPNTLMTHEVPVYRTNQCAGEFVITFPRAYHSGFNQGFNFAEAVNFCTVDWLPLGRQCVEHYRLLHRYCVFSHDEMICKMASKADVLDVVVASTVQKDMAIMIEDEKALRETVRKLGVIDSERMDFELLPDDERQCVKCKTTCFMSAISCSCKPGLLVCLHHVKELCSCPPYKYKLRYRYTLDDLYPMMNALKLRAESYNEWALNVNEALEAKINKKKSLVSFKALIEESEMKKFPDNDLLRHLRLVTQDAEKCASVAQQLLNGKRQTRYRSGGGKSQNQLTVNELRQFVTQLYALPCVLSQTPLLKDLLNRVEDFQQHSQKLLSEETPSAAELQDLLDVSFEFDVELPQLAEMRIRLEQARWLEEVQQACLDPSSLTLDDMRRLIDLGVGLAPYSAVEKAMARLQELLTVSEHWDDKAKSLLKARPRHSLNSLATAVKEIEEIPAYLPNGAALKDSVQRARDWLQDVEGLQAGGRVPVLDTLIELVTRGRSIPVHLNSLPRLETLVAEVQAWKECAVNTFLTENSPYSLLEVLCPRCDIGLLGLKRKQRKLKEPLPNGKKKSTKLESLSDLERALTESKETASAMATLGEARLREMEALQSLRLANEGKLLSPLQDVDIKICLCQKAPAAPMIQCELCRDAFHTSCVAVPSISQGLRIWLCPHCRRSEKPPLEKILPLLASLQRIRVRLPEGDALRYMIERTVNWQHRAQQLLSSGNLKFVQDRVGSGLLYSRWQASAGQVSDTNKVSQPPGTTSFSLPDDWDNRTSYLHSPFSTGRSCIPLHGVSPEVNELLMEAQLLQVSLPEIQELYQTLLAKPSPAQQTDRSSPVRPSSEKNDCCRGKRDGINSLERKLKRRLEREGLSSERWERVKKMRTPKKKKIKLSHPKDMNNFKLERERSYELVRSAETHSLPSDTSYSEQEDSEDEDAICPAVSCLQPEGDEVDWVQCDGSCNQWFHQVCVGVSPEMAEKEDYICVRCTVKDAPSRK

Compound	activity change, negative = inhibition	Potency
CC(C)(C)Sc1ccc2nn(CC(=O)Nc3ccccc3F)c(=O)n2n1	inactive: 18%	
COCCNC(=O)c1cnc2c(c1)N(Cc1ccccc1C(F)(F)F)CCC2		active: 35.5 µM
CCN(CC)CCC(=O)Nc1c(C(=O)OC)[nH]c2ccc(C)cc12		inconclusive: 25.1 µM [inhibitor, single point]
Cc1ccc(CCNC(=O)c2cc3c(=O)n(C)c4ccccc4c3n2C)cc1		inconclusive: 2.51 µM [inhibitor, full curve, poor fit]
COCCOC1CCOC2(CCN(C(=O)COc3ccc(C)cc3)CC2)C1 (configuration not stated)	inactive: -19.5%	
Cc1cccc(OCC(=O)Nc2ccccc2C(=O)OCc2cc(=O)n3nc(C4CC4)sc3n2)c1	inactive: 3.47%	
Nc1ccc2oc(Cc3ccc(Cl)cc3)nc2c1		inconclusive: 8.91 µM [inhibitor, partial curve, poor fit]
CCOC(=O)COc1nc(-c2ccc(C)cc2)cc(-c2ccco2)c1C#N		inconclusive: 25.1 µM [inhibitor, partial curve, poor fit]
Cc1ccc(CNC(=O)c2ccccc2NC(=O)Cn2c(C)cc(C)c(C#N)c2=O)o1		inconclusive: 31.6 µM [inhibitor, single point]
CCn1ccnc1CN(C)c1ccc(-c2nc(C3CC3)no2)cn1		inconclusive: 35.5 µM [inhibitor, partial curve, poor fit]
O=C(NCCC(=O)N1CCCC1)c1cc(=O)[nH]c2ccccc12	inactive: 41.6%	
COC(=O)C1=C(C)N=C2SC=C(CC(=O)NCc3ccco3)N2C1c1ccccc1OC (configuration not stated)		inconclusive: 28.2 µM [inhibitor, partial curve, poor fit]
O=C(COc1ccc(F)cc1)N1CCC(N2CC3CC(C2)[C@H]2CCCC(=O)N2C3)CC1 (some centres not stated)		inconclusive: 12.6 µM [inhibitor, partial curve]
COc1ccccc1CN1CCNc2cc(Nc3ccccc3)ncc2C1	inactive: -24.1% [at 86.2 µM]	
CCOC(=O)c1cnc2c(Cl)c(Cl)ccc2c1NCCOC(=O)C(C)C	inactive: 6.25%	
CCCCNC(=O)c1ccc2c(c1)NC(=O)C(CS(=O)(=O)Cc1ccc(F)cc1Cl)N2 (configuration not stated)		inconclusive: 17.8 µM [inhibitor, partial curve, poor fit]
Cc1ccccc1C(C)NC(=O)c1cc2ccccc2oc1=O (configuration not stated)		inconclusive: 25.1 µM [inhibitor, partial curve, poor fit]
N[C@@H](CO)c1nc(C2CCOCC2)nn1-c1ccccc1F		active: 25.1 µM
CN(c1ccccc1)c1cc(=O)c2ccnc(-c3cncnc3)c2o1		inconclusive: 28.2 µM [inhibitor, single point]
COc1cccc(-c2ccc3c(N)c(C(=O)Nc4ccccc4C)sc3n2)c1		inconclusive: 28.2 µM [inhibitor, partial curve, poor fit]
COc1ccc(C(=O)N2CCc3nc(C(C)C)nc(-c4ccc(OC)cc4)c3CC2)cc1	inactive: -29.1%	
O=C(NNC(=O)c1ccc(NC(=O)C2CCCCC2)cc1)c1ccc(F)cc1	inactive: 13.8%	
O=C(NCc1cccc(Cl)c1)C(=O)Nc1ccc2cc[nH]c2c1	inactive: 6.05%	
CCn1c(=O)cc(SCC(=O)NCc2ccc(C)cc2)c2ccccc21		inconclusive: 31.6 µM [inhibitor, single point]

Compound	activity change, negative = inhibition	Potency
COc1cccc(C(=O)Oc2ccc(OC(=O)c3cccc(OC)c3)cc2)c1	inactive: -9.44%	
Cc1ccc2nc(C)cc(C(=O)N(C)C3CCS(=O)(=O)C3)c2c1 (configuration not stated)	inactive: 15.4%	
COc1cccc(C(=O)Nc2nnc(-c3ccccc3)s2)c1		inconclusive: 28.2 µM [inhibitor, partial curve, poor fit]
O=C(NCc1ccccc1)C1CCCN(c2cnc3ccccc3n2)C1 (configuration not stated)	inactive: -0.474%	
O=C(c1ccc(Cl)cc1)c1cn(Cc2ccccc2)c2cc3c(cc2c1=O)OCCO3		inconclusive: 39.8 µM [inhibitor, single point]
COC(=O)C1CCN(C(=O)CC[C@H]2CNC(=O)[C@@H]3[C@@H](CCN3Cc3cccs3)N2C)CC1	inactive: -14.8%	
CC1(C)[C@H](Cc2cc(CN3CCCCC3)on2)C[C@@H]1NS(C)(=O)=O		inconclusive: 28.2 µM [inhibitor, single point]
Cc1cccc(Nc2nc(C(=O)N(C)C3CCCCC3)cs2)c1	inactive: 5.34%	
CCc1ccc(N2CC(c3noc(C4(c5ccccc5)CC4)n3)CC2=O)cc1 (configuration not stated)	inactive: 10%	
CCOc1ccc(NC(=O)CN2C(=O)NC3(CCC(C)CC3)C2=O)cc1 (configuration not stated)	inactive: -12.1%	
CCOc1ccc(NC(=O)CN(C)S(=O)(=O)c2ccc3[nH]c4c(c3c2)CCCC4)cc1		inconclusive: 35.5 µM [inhibitor, single point]
CCC1=C(C(=O)OC)C(c2cccc(F)c2)N2C(CC(=O)NCC3CCCO3)=CSC2=N1 (configuration not stated)		inconclusive: 35.5 µM [inhibitor, partial curve]
CS(=O)(=O)c1ccc(S(=O)(=O)N2CCC3(CCCNC3)C2)cc1 (configuration not stated)	inactive: 11.5%	
O=c1n(-c2ccc(F)cc2F)nc2n1CCN(Cc1cccs1)C2		inconclusive: 22.4 µM [inhibitor, partial curve]
CC(=O)Nc1ccc([C@H]2OCC(=O)N(CCN)[C@@H]2CO)cc1	inactive: 47.4% [at 86.2 µM]	
Cc1cccc(N2C(=O)N(Cc3cc(=O)n4ccccc4n3)c3ccccc3S2(=O)=O)c1		inconclusive: 31.6 µM [inhibitor, partial curve, poor fit]
CN(C)CC(=O)N1Cc2ccccc2CC2(CCCN2C)C1 (configuration not stated)		inconclusive: 79.4 µM [inhibitor, partial curve, poor fit]
CC(=O)c1cccc(NC(=O)CC2SC(c3cc4ccccc4oc3=O)=NC2=O)c1 (configuration not stated)		inconclusive: 17.8 µM [inhibitor, single point]
Cc1cc(C)c2c(CC(=O)Nc3ccc(F)cc3)coc2c1	inactive: 16%	
COc1cc(S(=O)(=O)Nc2ccc(C(C)=O)cc2)ccc1NC(C)=O	inactive: 4.01%	
Cc1cc(=O)oc2cc(OCC(=O)Nc3ccc(C(N)=O)cc3)ccc12		inconclusive: 28.2 µM [inhibitor, partial curve, poor fit]
CN(C)C(=O)c1ccc(NC(=O)COC(=O)C2CCN(c3ccc(C(F)(F)F)cn3)CC2)cc1		inconclusive: 11.2 µM [inhibitor, partial curve, poor fit]
Cc1cccc(-n2c3nc(=O)[nH]c(=O)c-3cc3ccccc32)c1C	inactive: 2850%	
Cc1nc(-c2cccs2)c(CC(=O)N2CCc3ccccc3C2)s1	inactive: -13.7%	

Compound	activity change, negative = inhibition	Potency
CC(C)CN(CC(C)C)C(=O)CC1C(=O)NCCN1Cc1cccs1 (configuration not stated)	inactive: 16.2%	
CCOc1ccc2c(c1)c(=O)c(C(=O)c1ccccc1)cn2Cc1ccccc1		inconclusive: 35.5 µM [inhibitor, single point]
CN(C)CC1(O)CCCN(Cc2ccc(CCN)cc2)C1 (configuration not stated)		inconclusive: 5.01 µM [inhibitor, partial curve]
COc1ccc(-n2nc(C)c([C@@H]3C=C[C@@H](NCc4ccc(C(C)C)cc4)C3)c2C)cc1		inconclusive: 28.2 µM [inhibitor, partial curve]
Cc1c(NC(=O)c2cc3cc(F)ccc3[nH]2)c(=O)n(-c2ccccc2)n1C	inactive: 20.4%	
Cc1ccc(C(=O)Nc2c(C(=O)NC(C)(C)C)oc3ccccc23)cc1		inconclusive: 35.5 µM [inhibitor, partial curve, poor fit]
O=C1Nc2ccccc2CN(CC2CCCC2)C12CCNC2 (configuration not stated)		active: 89.1 µM
CCCCCC1CCC(c2ccc(-c3ccccc3)cc2)=CC1=O (configuration not stated)	inactive: 24%	
CN(C)c1ccc2nnc(-c3cc(C(=O)Nc4cccc(Cl)c4)ccn3)n2n1		inconclusive: 56.2 µM [inhibitor, single point]
O=C(NCCNc1cccnc1)C1CCC(=O)N(Cc2ccc(Cl)cc2)C1 (configuration not stated)		active: 11.2 µM
CC(CC(=O)O)CC(=O)NCCN1CCCCC1 (configuration not stated)	inactive: 6.58%	
COc1ccc(C2(C)NC(=O)N(Cc3nc(-c4cccs4)oc3C)C2=O)cc1OC (configuration not stated)		inconclusive: 31.6 µM [inhibitor, single point]
Cc1ccc(C(=O)NC(C(=O)N2CCCC2)C2CCN(C(=O)c3ccccc3F)CC2)cc1 (configuration not stated)		inconclusive: 28.2 µM [inhibitor, single point]
Cc1ccc(-c2csc(-c3ccc(O)cc3)n2)c(C)c1		inconclusive: 39.8 µM [inhibitor, single point]
O=C(NCc1ccncc1)c1nc2c(o1)CCN(Cc1ccccc1F)CC2	inactive: -17.2% [at 86.2 µM]	
Cc1nc2ccc(Cl)cc2cc1C(=O)NC(C)C	inactive: 8.72%	
COc1ccc(Br)cc1CNC(=O)CCc1ccc2nc(NC(=O)C(C)C)sc2c1	inactive: 21.6%	
C=C(C)COc1ccc2c(C)c(CCC(=O)NCc3ccc(S(N)(=O)=O)cc3)c(=O)oc2c1		inconclusive: 28.2 µM [inhibitor, partial curve, poor fit]
Cc1cc(/C=C(/C#N)c2ccccn2)c(C)n1C1CC1		inconclusive: 25.1 µM [inhibitor, partial curve, poor fit]
Cc1ccc(NC(=O)c2cc(S(=O)(=O)N3CCCCC3)c[nH]2)cc1N(C)C		inconclusive: 35.5 µM [inhibitor, partial curve, poor fit]
CN1CC(=O)N(C2CCCNC2)Cc2c1ncnc2N(C)Cc1ccc(F)cc1 (configuration not stated)		active: 22.4 µM
COc1ccccc1CNC(=O)c1cccc2c1C(=O)N(C1CCCCC1)C2	inactive: 20.9%	
CC1CCCN(c2ncnc3c2CN(c2ccc(Cl)cc2)C(=O)CN3C)C1 (configuration not stated)	inactive: 3.94%	
O=S(=O)(Nc1ccc2nc(-c3ccc(F)cc3)oc2c1)c1ccccc1		inconclusive: 39.8 µM [inhibitor, single point]
